According to the supplement of paper PMC12217912:
The other results are listed elsewhere or left out. Sequences were assembled here from the parent chain. Inactive controls read about 0.05.

B1: TEV protease; numbered along this chain (parent)
chain: MGESLFKGPRDYNPISSSICHLTNESDGHTTSLYGIGFGPFIITNKHLFRRNNGTLVVQSLHGVFKVKDTTTLQQHLVDGRDMIIIRMPKDFPPFPQKLKFREPQREERICLVTTNFQTKSMSSMVSDTSCTFPSGDGIFWKHWIQTKDGQCGSPLVSTRDGFIVGIHSASNFTNTNNYFTSVPKNFMELLTNQEAQQWVSGWRLNADSVLWGGHKVFMVKPEEPFQPVKEATQL

Variants of: B1
Assay: raw area under fraction-flipped curve 0-4 h after induction (AUC4h, not background-subtracted), DNA-recorder readout of cleavage of the substrate (dimensionless); higher = more cleavage of the substrate by the protease variant
Conditions: temperature: 34 °C; time window: 0-4 h after rhamnose induction
Procedure: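 In vivo DNA recorder in E. coli TOP10(DE3) ΔrhaA at 34 °C. Each TEVp single-site mutant (parent TEVp 0) is paired with a single-site variant of the 7-mer TEVs (canonical ENLYFQ|S). The substrate sits between flexible linkers in a Bxb1-sfGFP-TEVs-SsrA fusion, so cleavage stabilises Bxb1 and speeds flipping of a recombination array, read by NGS. The value is the raw area under the fraction-flipped curve over 0-4 h after rhamnose induction (AUC4h), with ≥20 reads per time point. It is not background-subtracted; inactive controls average about 0.047.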
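Further: Bxb1 expression induced with 0.2% (w/v) L-rhamnose at OD600 near 0.5, cultures sampled hourly, flipped fraction per protease–substrate barcode pair counted by paired-end Illumina sequencing.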

| Variant | area with substrate ENLAFQS | area with substrate ENLCFQS | area with substrate ENLDFQS | area with substrate ENLEFQS | area with substrate ENLFFQS | area with substrate ENLGFQS | area with substrate ENLHFQS | area with substrate ENLIFQS | area with substrate ENLKFQS | area with substrate ENLLFQS | area with substrate ENLMFQS | area with substrate ENLNFQS | area with substrate ENLPFQS | area with substrate ENLQFQS | area with substrate ENLRFQS | area with substrate ENLSFQS | area with substrate ENLVFQS | area with substrate ENLTFQS | area with substrate ENLWFQS |
| --- | --- | --- | --- | --- | --- | --- | --- | --- | --- | --- | --- | --- | --- | --- | --- | --- | --- | --- | --- |
| N13S | 0.0663 | 0.0812 | 0.0663 | 0.0742 | 0.0861 | 0.0361 | 0.0644 | 0.0732 | 0.0769 | 0.0694 | 0.0805 | 0.0668 | 0.069 | 0.0677 | 0.0619 | 0.0505 | 0.0774 |  |  |
| N24R | 0.0487 | 0.0692 | 0.0664 | 0.0489 | 0.0543 | 0.0526 | 0.0626 | 0.0662 | 0.0763 | 0.0607 | 0.0709 |  | 0.0641 | 0.0495 | 0.0734 | 0.071 | 0.0674 | 0.058 |  |
| N24W | 0.0675 | 0.0759 | 0.0687 | 0.0663 | 0.052 |  | 0.0712 |  | 0.0764 | 0.0543 |  | 0.0625 | 0.0686 | 0.0601 | 0.0499 | 0.0494 | 0.0534 |  | 0.0767 |
| N24Y | 0.0632 |  | 0.0629 |  | 0.0747 |  | 0.0627 | 0.0703 |  | 0.0661 | 0.073 | 0.0629 | 0.0788 | 0.0563 |  | 0.0703 | 0.0843 | 0.0906 | 0.0478 |
| K120Y | 0.0646 | 0.0644 | 0.0578 | 0.0859 | 0.0397 |  | 0.0483 | 0.0843 | 0.057 | 0.0564 | 0.0657 | 0.0565 |  |  |  | 0.0625 | 0.0703 |  | 0.034 |
| G80P | 0.0558 |  | 0.0612 |  | 0.0653 |  |  | 0.0838 |  |  |  |  | 0.0662 |  |  | 0.0518 |  |  |  |
| E224R | 0.077 |  | 0.0708 |  | 0.0752 | 0.0845 | 0.0747 |  | 0.0237 |  |  | 0.0675 |  | 0.061 | 0.0835 | 0.061 |  |  |  |
| L112C | 0.0624 | 0.0612 | 0.0532 | 0.0688 | 0.0689 |  | 0.0772 | 0.0874 | 0.0803 |  |  |  | 0.0656 | 0.0615 | 0.0772 | 0.0909 | 0.0734 |  | 0.0709 |
| P96V | 0.0686 | 0.065 | 0.0655 | 0.0697 | 0.0832 | 0.0535 | 0.0803 |  | 0.0741 | 0.0894 |  | 0.063 | 0.0553 | 0.0776 | 0.0814 | 0.0548 | 0.0809 |  | 0.0641 |
| L5E | 0.0516 |  | 0.0675 | 0.0769 | 0.0848 | 0.0562 | 0.0472 |  | 0.0796 | 0.0749 | 0.0766 | 0.0561 | 0.0388 |  | 0.08 | 0.0488 | 0.102 | 0.0242 | 0.0731 |
| D27P | 0.0648 | 0.0691 | 0.0645 | 0.063 | 0.0689 |  | 0.0626 |  | 0.0614 | 0.0502 |  | 0.0564 | 0.0399 |  | 0.0496 | 0.0582 | 0.0516 |  | 0.0854 |
| H21P | 0.0494 | 0.0437 | 0.0549 | 0.0553 | 0.0525 |  | 0.047 | 0.0618 | 0.0537 |  | 0.0565 | 0.0604 | 0.057 |  | 0.0406 | 0.0531 | 0.0598 | 0.0608 | 0.0555 |
| S32E | 0.0663 | 0.0726 | 0.0661 | 0.0655 | 0.0955 | 0.0694 | 0.0813 | 0.079 | 0.0726 | 0.0763 | 0.0733 | 0.0585 | 0.0718 | 0.0507 | 0.0756 | 0.0684 | 0.0859 |  |  |
| D128L | 0.07 |  | 0.0783 | 0.0754 | 0.11 |  | 0.079 |  | 0.0869 |  | 0.0922 | 0.0735 | 0.0597 | 0.0839 | 0.102 | 0.0672 | 0.102 |  |  |
| D128F | 0.065 |  | 0.0555 | 0.0692 | 0.107 |  |  |  | 0.105 |  |  | 0.0708 | 0.0614 | 0.0737 | 0.0842 |  | 0.122 |  |  |
| P222H | 0.0511 | 0.0744 | 0.0682 |  | 0.0841 |  | 0.0477 |  | 0.0852 |  | 0.0489 | 0.066 |  | 0.0743 |  | 0.0601 |  |  | 0.0653 |
| C152I | 0.0616 | 0.0516 | 0.0662 | 0.0658 | 0.0519 |  | 0.0582 | 0.0602 | 0.0756 | 0.0596 |  | 0.0625 | 0.0679 | 0.0566 | 0.0631 | 0.0577 | 0.0589 |  | 0.0654 |
| C152K | 0.0512 |  | 0.0726 | 0.0655 |  | 0.0661 | 0.0634 |  | 0.068 | 0.0762 |  | 0.0617 |  |  |  | 0.0435 |  |  |  |
| G150E | 0.117 | 0.0473 | 0.0627 | 0.0595 | 0.0636 |  | 0.0604 |  | 0.0591 | 0.0649 | 0.0777 | 0.0615 | 0.0602 |  | 0.0623 | 0.0646 | 0.0515 | 0.0652 |  |
| R10K | 0.0613 | 0.0687 | 0.0643 | 0.0722 | 0.099 | 0.0732 | 0.0702 | 0.0726 | 0.0699 | 0.0716 | 0.0609 | 0.0644 | 0.0625 |  | 0.105 | 0.0644 | 0.0758 |  | 0.0589 |
| G28L | 0.0824 | 0.0638 | 0.0608 | 0.0661 | 0.066 | 0.0874 | 0.067 | 0.0736 | 0.0677 | 0.0608 | 0.0681 | 0.0746 | 0.056 | 0.0537 | 0.0549 | 0.0576 | 0.0719 | 0.068 | 0.0624 |
| G136L | 0.0691 | 0.0694 | 0.0653 | 0.0456 | 0.0812 |  | 0.0673 | 0.0988 | 0.0723 | 0.0565 |  | 0.0557 | 0.0572 | 0.0764 | 0.076 | 0.0632 | 0.0936 |  | 0.0586 |
| G136W | 0.0597 | 0.0738 | 0.0628 | 0.0603 | 0.0823 | 0.0626 |  | 0.0647 | 0.0805 |  |  | 0.0609 |  | 0.0677 |  | 0.0847 | 0.115 |  | 0.0548 |
| P184C | 0.0508 |  |  | 0.0623 | 0.0964 | 0.069 | 0.0653 | 0.0722 | 0.0691 | 0.0539 | 0.0523 | 0.0695 | 0.0617 |  |  |  | 0.0769 |  | 0.0568 |
| D208S | 0.0652 |  | 0.0599 |  | 0.0984 |  |  | 0.0804 | 0.0753 |  |  | 0.066 |  | 0.0465 |  |  |  |  | 0.0609 |
